# Assay results taken from PubChem BioAssay AID489012 (National Center for Advancing Translational Sciences (NCATS), 2010).
# The inconclusive results got no clear call from the source; some entries with a clear call stand among them for comparison. Where the call is inconclusive, the potency comes from a doubtful curve fit. Active and inactive are the calls of the source. The call rests on the fitted dose curve; in most records, active means well fitted activation curve with a large enough effect; inconclusive means small, poorly fitted or top-dose-only effect; inactive means no such curve, though single readings can be large or run the other way.
# Target: Relaxin receptor 1 (Homo sapiens) (UniProt Q9HBX9)
# Experiment: qHTS Assay for Agonists of the Relaxin Receptor RXFP1: RXFP1 Hit Validation; further: nearly all actives have a fitted effect of over 65% in size;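 on activation: cAMP rise lowers the TR-FRET signal in lysed cells with PDE4 inhibitor present; 0% = buffer-only basal and 100% = 29 nM porcine relaxin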
# Settings: HEK293T-RXFP1 cAMP TR-FRET, 30 min; series mostly up to 115 µM; activation: at the top concentration
# From the text: NIH Chemical Genomics Center [NCGC] NIH Molecular Libraries Probe Production Centers Network [MLPCN] MLPCN Grant: R03 MH085705-01A1 Assay Submitter (PI): Alexander Agoulnik NCGC Assay Overview: The relaxin hormone is involved in the variety of biological functions in normal tissues and diseases. The role of relaxin is well-established in female reproduction and parturition, mammary gland and endometrial development, maintenance of myometrial quiescence during pregnancy. Relaxin signaling through its G protein-coupled receptor (GPCR) RXFP1 results in ECM remodeling through regulation of collagen deposition, cell invasiveness, proliferation and overall tissue homeostasis. […] Recombinant human relaxin (rhRlx) is currently being tested in clinical trials as a protective agent in congestive heart failure, in treating severe preeclampsia, and as an anti-fibrotic agent in systemic sclerosis. Upon relaxin binding RXFP1 activation leads to the activation of adenylate cyclase (AC) via Gs. cAMP will activate PKA, which phosphorylates many signaling proteins. Thus, detection of cAMP increase is an easy and reliable indication of relaxin receptor activation. To screen for agonists of the relaxin receptor, a HEK293T cell line stably transfected with RXFP1 was used. RXFP1 activation was assayed by changes in cAMP levels as detected with a time-resolved fluorescence energy transfer (TR-FRET) cAMP detection kit.
# NCGC Assay Protocol Summary: This is a cell-based assay for cAMP second messenger response to screen for agonists of the RXFP1 receptor. The assay was conducted in the presence of a PDE4 inhibitor (Ro 20174). The cells were lysed and the cAMP levels were measured with a TR-FRET cAMP kit. Presence of cAMP in the cell lysate disrupts binding between the cryptate-labeled anti-cAMP and d2-labeled cAMP pair, leading to a decrease in the TR-FRET signal. Data were normalized to the controls for basal activity (buffer only) and 100% activity (29 nM porcine relaxin). The EC50 values were determined from concentration-response data modeled with the standard Hill equation 1536-well assay protocol for the HEK293 RXFP1 cAMP assay: (1) Add 3 ul HEK293 RXFP1 cell culture. 2000 cells/well in DMEM/F12, 10% FBS, 1x Pen/Strep (dispensed offline with MultiDrop Combi). (2) Incubate 16-24 hr at 37C, 5% CO2. (3) Add 1 ul 400uM Ro20174 in DPBS, 0.05% BSA, 0.005% Tween 20. (3) Add 23 nl compounds in DMSO solution. Final concentration was 0.5 - 58 uM. (4) Incubate 30 min at 37C, 5% CO2. (5) Add 1 ul cAMP-d2 in lysis buffer (HTRF cAMP HiRange kit, CisBio). (6) Add 1 ul anti-cAMP antibody-cryptate in lysis buffer (HTRF cAMP HiRange kit, CisBio). (7) Incubate 30 min at room temperature. […] Keywords: relaxin, RXFP1, RXFP2, G-protein coupled receptor, cAMP, agonist, high throughput screening, MLSMR, MLSCN, NIH Roadmap, qHTS and NCGC
# Potency means the concentration at half of the fitted maximal effect; tags describe the fitted curve by direction and shape.
# UniProt Q9HBX9, sequence (Q9HBX9 whole entry, looked up): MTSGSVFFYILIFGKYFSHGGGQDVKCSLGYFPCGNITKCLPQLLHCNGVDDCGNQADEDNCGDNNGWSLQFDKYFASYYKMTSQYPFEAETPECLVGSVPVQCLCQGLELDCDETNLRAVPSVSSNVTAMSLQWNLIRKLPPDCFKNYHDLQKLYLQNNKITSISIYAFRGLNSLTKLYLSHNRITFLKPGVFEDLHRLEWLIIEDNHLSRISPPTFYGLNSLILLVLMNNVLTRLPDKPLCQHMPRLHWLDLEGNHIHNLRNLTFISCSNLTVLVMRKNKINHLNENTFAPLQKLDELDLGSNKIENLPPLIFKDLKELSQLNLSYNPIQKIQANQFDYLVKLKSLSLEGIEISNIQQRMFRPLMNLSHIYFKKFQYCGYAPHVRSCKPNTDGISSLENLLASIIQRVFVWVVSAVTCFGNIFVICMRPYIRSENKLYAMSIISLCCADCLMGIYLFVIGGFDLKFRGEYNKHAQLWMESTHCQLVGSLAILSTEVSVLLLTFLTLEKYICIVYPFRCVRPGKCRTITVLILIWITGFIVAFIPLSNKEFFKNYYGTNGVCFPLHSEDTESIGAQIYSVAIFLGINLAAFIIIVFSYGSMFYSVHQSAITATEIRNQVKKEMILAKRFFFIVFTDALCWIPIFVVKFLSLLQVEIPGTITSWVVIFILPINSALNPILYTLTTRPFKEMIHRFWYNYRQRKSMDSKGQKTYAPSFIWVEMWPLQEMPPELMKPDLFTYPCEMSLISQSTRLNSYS
SMILES,Potency,activation
COc1ccc(C(=O)Nc2ccc(S(=O)(=O)Nc3onc(C)c3C)cc2)c(OC)c1,active: 5.95 µM,–
COCCNC(=O)C(OC(=O)c1nsc(Cl)c1Cl)C(C)C (stereo not given),–,inactive: 24.3%
O=C(O)CCSc1ccc2ccccc2n1,"inconclusive: 19.4 µM [activator, partial curve]",–
CCOC(=O)N1CCN(S(=O)(=O)c2c(C)nc3scc(C)n3c2=O)CC1,"inconclusive: 27.5 µM [activator, partial curve]",–
Cc1cccc(N2C(=O)C(O)=C(C(=O)c3cccs3)C2c2ccc(C(C)C)cc2)n1 (stereo not given),–,inactive: 22%
O=C(C1CCN(c2ncnc3c2sc2cccc(F)c23)CC1)N1CCCC1,"inconclusive: 34.6 µM [activator, partial curve, poor fit]",–
Cc1ccc(-c2ccc3nnc(SCC(=O)NCC4CCCO4)n3n2)cc1 (stereo not given),–,inactive: -24.9%
CCOC(=O)C(CC)Sc1ccc2nnc(-c3cccnc3)n2n1 (stereo not given),"inconclusive: 30.9 µM [activator, partial curve]",–
Cc1ccc(-n2c(=S)[nH]c3sc4c(c3c2=O)CCC4)cc1,"inconclusive: 10.9 µM [activator, partial curve]",–
CSCCC(NS(=O)(=O)c1ccc2c(c1)c(=O)n(C)c(=O)n2C)C(=O)NC1CCN(Cc2ccccc2)CC1 (stereo not given),"inconclusive: 30.9 µM [activator, partial curve, poor fit]",–
Cc1cccc(C(=O)Nc2ccccc2C(=O)NCc2ccco2)c1,–,inactive: 9.91% [at 125 µM]
CCCC(=O)Nc1ncnc2c1ncn2[C@@H]1O[C@@H]2OP(=O)(O)OC[C@H]2[C@H]1OC(=O)CCC,active: 0.346 µM,–
Cc1ccccc1NC(=O)c1ccccc1NC(=O)c1ccco1,–,inactive: -6.33% [at 125 µM]
COc1cccc(NC(=O)Cn2c3ccc(OC)cc3c3nc4n(c(=O)c32)CCS4)c1,"inconclusive: 17.3 µM [activator, partial curve]",–
CC1CCN(S(=O)(=O)c2ccc3nc(N4CCN(c5ccccc5)CC4)ccc3c2)CC1,active: 12.3 µM,–
Nc1nnc(CC(=O)N/N=C/c2ccc(-c3ccc(Cl)cc3Cl)o2)s1,–,inactive: 6.59%
CN(Cc1ccco1)S(=O)(=O)c1cc(F)ccc1CN1C(=O)c2cccnc2C1=O,"inconclusive: 47.3 µM [activator, partial curve]",–
COC(=O)c1sc(N2C(=O)C(O)=C(C(=O)c3ccc(C)o3)C2c2ccc(F)cc2)nc1C (stereo not given),"inconclusive: 4.35 µM [activator, full curve]",–
COc1ccc(/C=C2/SC(=O)N(CC(=O)Nc3cc(C)on3)C2=O)cc1OC,–,inactive: -68%
Cc1ccc(-n2nnc3c(=O)n(CC(=O)NCC4CCCO4)cnc32)cc1 (stereo not given),"inconclusive: 27.5 µM [activator, partial curve]",–

SMILES,Potency,activation
O=C(Nc1ccccc1C(=O)NCCN1CCOCC1)c1ccco1,–,inactive: -0.806% [at 125 µM]
O=C(O)c1cccc(CSc2nnc(Cc3ccccc3)o2)c1,–,inactive: 3.18% [at 45 µM]
Cc1c(CCOC(=O)c2cc([N+](=O)[O-])ccc2Cl)sc[n+]1CCCCS(=O)(=O)[O-],–,inactive: 7.88%
COc1ccc(-n2nnc3c(=O)n(CC(=O)NCC4CCCO4)cnc32)cc1 (stereo not given),"inconclusive: 15.4 µM [activator, partial curve]",–
Nc1c(S(=O)(=O)O)cc(NC(=O)c2ccccc2)c2c1C(=O)c1ccccc1C2=O,–,inactive: 10.9% [at 45 µM]
Cc1cc(C(=O)COC(=O)Cn2cnc3c2c(=O)n(C)c(=O)n3C)c(C)n1C,active: 30.9 µM,–
Cc1cc(CNC(=O)COc2ccc([N+](=O)[O-])cc2)c2ccccc2n1,"inconclusive: 42.1 µM [activator, partial curve]",–
CN(C)c1ccc2nc3c(=O)[nH]c(=O)nc-3n(CC(O)C(O)C(O)CO)c2c1 (stereo not given),–,inactive: 7.23%
O=C1CCCN1CCCNc1ccc2nnc(CCC(=O)N3CCN(c4ccccc4)CC3)n2n1,"inconclusive: 43.6 µM [activator, partial curve, poor fit]",–
Cn1c(=O)c2sccc2n2c(CCCC(=O)NCCc3ccc(S(N)(=O)=O)cc3)nnc12,"inconclusive: 38.9 µM [activator, partial curve]",–
CC[N+](CC)(CCCCS(=O)(=O)[O-])CCNP1(=O)C=C(c2ccccc2)OC(c2ccccc2)=C1,"inconclusive: 47.3 µM [activator, partial curve]",–
COc1ccc(-n2nc(C(=O)NCC(=O)NCCCN3CCOCC3)c3ccccc3c2=O)cc1,"inconclusive: 34.6 µM [activator, partial curve]",–
COc1ccccc1CNS(=O)(=O)c1cc(CN2C(=O)c3cccnc3C2=O)ccc1OC,active: 30.9 µM,–
O=C(CN1C(=O)c2cccc3cccc(c23)C1=O)NCCN1CCOCC1,–,inactive: 28.1% [at 45 µM]
Cc1ccc(NC(=O)CCc2nnc3ccc(N4CCN(C)CC4)nn23)cc1F,"inconclusive: 38.9 µM [activator, partial curve]",–
CC(C)OC(=O)CNc1n[nH]c(=S)[nH]c1=O,"inconclusive: 7.74 µM [activator, partial curve]",–
Cc1cc(C)c(NC(=O)CS(=O)CC(=O)Nc2ccc(F)cc2F)c(C)c1 (stereo not given),–,inactive: 3.66%
CCOc1ccc(NC(=O)CSc2ccc3nnc(-c4cccnc4)n3n2)cc1,"inconclusive: 34.6 µM [activator, partial curve]",–
O=c1oc2cc(O)c(Cl)cc2c2ccccc12,active: 6.9 µM,–
COC(=O)[C@@H]1C[C@@]2(O)[C@H](O)[C@H](O)[C@H](O)C[C@H]2N1Cc1cc(F)ccc1F,–,inactive: 3.14%
